Assay results: PubChem BioAssay AID1159614 (National Center for Advancing Translational Sciences (NCATS), 2016)
Screen size: about 45,000 compounds; about 65 (0.1%) were called active. The call rests on the fitted dose curve; in most records, active means well fitted activation curve with a large enough effect; inconclusive means small, poorly fitted or top-dose-only effect; inactive means no such curve, though single readings can be large or run the other way. The list shows a part of the results.

Molecular target: Galactocerebrosidase (Homo sapiens) (UniProt P54803)
Chain of UniProt P54803 (P54803 whole entry, looked up): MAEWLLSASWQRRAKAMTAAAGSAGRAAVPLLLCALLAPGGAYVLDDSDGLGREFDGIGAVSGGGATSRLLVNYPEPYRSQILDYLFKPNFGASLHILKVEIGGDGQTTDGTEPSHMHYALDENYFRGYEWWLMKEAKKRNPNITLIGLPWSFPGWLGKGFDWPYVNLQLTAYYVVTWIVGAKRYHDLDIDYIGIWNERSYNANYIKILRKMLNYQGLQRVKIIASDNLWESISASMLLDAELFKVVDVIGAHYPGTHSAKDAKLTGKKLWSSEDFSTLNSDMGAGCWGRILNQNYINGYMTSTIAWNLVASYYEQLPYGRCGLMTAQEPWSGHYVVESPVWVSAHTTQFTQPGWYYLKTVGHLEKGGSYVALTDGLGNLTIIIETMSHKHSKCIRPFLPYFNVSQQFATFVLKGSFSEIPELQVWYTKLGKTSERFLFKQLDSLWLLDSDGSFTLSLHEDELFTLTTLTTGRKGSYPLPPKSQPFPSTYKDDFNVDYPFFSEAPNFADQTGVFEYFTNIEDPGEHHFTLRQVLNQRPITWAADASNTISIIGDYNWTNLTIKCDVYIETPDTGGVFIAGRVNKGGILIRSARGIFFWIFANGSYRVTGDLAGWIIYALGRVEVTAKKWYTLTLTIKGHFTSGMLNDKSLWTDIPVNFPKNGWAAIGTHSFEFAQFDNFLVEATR
Test: A Novel Cell-Based Assay to Identify Small Molecules for B -Galactocerebrosidase; further: 0% is about no effect; nearly all actives have a fitted effect of over 65% in size
Conditions: 145M-Twi-hGALC-G270D cells, HMU-beta-Gal fluorescence, 48 h; series mostly up to 57.5 µM; activation: at the top concentration
Summary of the method: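 qHTS, 1536-well; 145M-Twi-hGALC-G270D cells (WT line also made) in DMEM/F12 + 10% FBS; compound incubation on live cells; HMU-β-gal 0.1 mM final, pH 5.2, NaTC; carbonate stop; fluorescence increase = enhanced residual activity.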

activation, inactive:
CCCC(O)c1nc2ccccc2n1Cc1ccccc1OC (centres undefined) -36.4%
Cc1cccc(C(C)C)c1NC(=O)C1CCCN1S(=O)(=O)c1cccc2nsnc12 (centres undefined) -11.1%
Cc1ccc(C(=O)CSc2nc(-c3ccccc3)nc3c2CCCC3)c(C)c1 8.67%
CCOCCCn1c(SCC(=O)OCC)nc2c(sc3ccccc32)c1=O 2.28%
COCCNC(=O)CSc1nc(-c2cc(OC)c(OC)c(OC)c2)[nH]c1-c1ccc(Cl)cc1 -4.74%
COc1ccc(CCNC(=O)C2CCC(CNS(=O)(=O)c3ccc(C)cc3)CC2)cc1OC (centres undefined) -2.15%
O=S(=O)(c1ccccc1)c1nnn2c1nc(NC1CCCCC1)c1sccc12 -11.9%
CNC(=O)C1CCC(Cn2c(=O)c3sccc3n(CC(=O)Nc3ccc(C)c(C)c3)c2=O)CC1 (centres undefined) -6.3%
Cc1ccc(CN(C(=O)c2ccccc2)c2ccccn2)o1 -1.69%
O=C(O)CCCCn1c(SCC(=O)Nc2ccccc2C(F)(F)F)nc2ccsc2c1=O -3.42%
CCc1ccc(NC(=O)CN(c2ccc(C)cc2)S(=O)(=O)c2cccs2)cc1 -4.94%
COc1ccc(-c2cc(C)no2)cc1S(=O)(=O)N1CCc2ccccc21 -13.7%
Cc1ccc(Cl)cc1NC(=O)Nc1nnc(N(C)Cc2ccccc2)s1 -18.4%
Cn1c(=O)c2c(SCC(=O)Nc3ccccc3C(F)(F)F)nc(C3CCCC3)nc2n(C)c1=O -3.15%
CCc1ccc(NC(=O)C(=O)NCC(c2cccnc2)N2CCN(c3ccc(F)cc3)CC2)cc1 (centres undefined) -15.5%
CC(=O)c1cccc(NC(=O)c2nc(-c3ccccc3)n(-c3cccc(Cl)c3)n2)c1 -31.6%
Cc1ccc(NC(=O)CSc2nc(=O)n(CCN3CCOCC3)c3c2CCC3)c(C)c1 -16.4%
Cc1ccc(NC(=O)c2nc(S(C)(=O)=O)ncc2N(Cc2ccco2)Cc2cccs2)c(C)c1 3.65%
Cc1ccc(OCC(=O)Nc2nnc(S(=O)(=O)N3c4ccccc4CC3C)s2)cc1 (centres undefined) -14.7%
Cc1ccc(C(=O)Nc2ccc(S(=O)(=O)N3CCC(c4nc5ccccc5s4)CC3)cc2)cc1 -21.2%
CC(=O)N1CCc2nc3sc(C(=O)c4ccc(F)cc4)c(N)c3c(C(F)(F)F)c2C1 -13.4%
Cc1nnc(N2CCC(C(=O)N3CCCCC3)CC2)c2nn(-c3ccc(Cl)cc3)c(C)c12 -10.7%
Cc1ccc(OCCCCn2nnc3sc4c(c3c2=O)CCCC4)cc1 -8.66%
CCOc1ccccc1Nc1sc(C(=O)c2ccccc2)c(N)c1C(=O)Nc1ccccc1 -13.4%
CCc1ccc(NC(=O)Cn2c(=O)n(CCCCC(=O)NCc3ccc4c(c3)OCO4)c(=O)c3ccccc32)cc1 -11.8%
CC(=O)c1cc(-c2ccccc2)n(CCC(=O)NCc2ccc(C)cc2)c1C -15.5%
CC(C)(C)c1ccc(C(=O)Nc2ccc3c(c2)CCCN3C(=O)c2cccs2)cc1 -14.6%
CCOc1ccccc1NC(=O)c1ccc2c(Cl)c3c(nc2c1)CCC3 -8.48%
COc1ccc(-c2nn3c(=O)cc(CN4CCN(C(=O)c5ccc(OC)c(OC)c5)CC4)nc3s2)cc1 3.39%
CCOc1ccccc1CNc1ccc2cc(S(=O)(=O)N3CCC(C)CC3)ccc2n1 -6.21%
COc1ccc(-c2noc(N(c3nc(-c4ccc(OC)c(OC)c4)no3)c3ccccc3OC)n2)cc1OC -0.735%
Cc1ccc(CNC(=O)C2CCN(S(=O)(=O)c3ccc4[nH]c(=O)ccc4c3)CC2)cc1 6.13%
Cc1nc2nc[nH]n2c(=O)c1CCC(=O)Nc1ccc(F)cc1 2.78%
CCC(C)NC(=O)CSc1nc2cc3c(cc2c(=O)n1CCCCCC(=O)NCc1ccc2c(c1)OCO2)OCO3 (centres undefined) -5.02%
Cc1ccccc1S(=O)(=O)Cc1ccc(C(=O)NC2CCC(C)CC2)o1 (centres undefined) -9.21%
CCOc1ccc(NC(=O)Cn2c(=O)n(-c3ccccc3)c(=O)c3ccc(C(=O)NCc4ccc5c(c4)OCO5)cc32)cc1 -24.8%
Cc1nn(-c2ccccc2)c2c1N(CC(=O)N1CCN(c3ccc(F)cc3)CC1)C(=O)CS2 -19.4%
CC1(C)C(=O)N(CC(=O)Nc2cccc(F)c2)c2ccc(S(=O)(=O)N3CCCCC3)cc21 -11.4%
COc1cccc2cc(C(=O)Nc3ccc(F)c(F)c3)c(=O)oc12 -14.4%
CCOc1ccc(-n2ccnc2SCC(=O)Nc2nc3ccc(C)cc3s2)cc1 -6.18%
Cc1cc(-c2ccc(C)c(S(=O)(=O)NC3CCCCC3)c2)on1 -3.42%
Nc1ncnc(Nc2ccccc2)n1 -8.78%
Cc1ccc(Cl)cc1-n1c(=O)c2sc3ccccc3c2n(Cc2ccccc2)c1=O -6.57%
CCCCCSc1nnc(-c2ccc(Br)cc2)o1 -22.5%
CCOc1cc(-c2nnc(SCC(=O)NC3CCCC3)nc2-c2ccc(OC)c(OCC)c2)ccc1OC -14.7%
CC(C)c1ccc(-c2nc(C(N)=O)c3c(n2)n(-c2ccc4c(c2)OCO4)c(=O)n3C)cc1 -20.1%
CCOc1ccc(NC(=O)Cn2cc(S(=O)(=O)NC)c(S(=O)(=O)NC)c2)cc1 -10.3%
COc1ccc(NC(=O)C2CCN(S(=O)(=O)c3ccc4[nH]c5c(c4c3)CCCCC5)CC2)cc1 -1.5%
O=C(Nc1cccc(F)c1)[C@H](CSCc1ccccc1)N1Cc2ccccc2C1=O 11.5%
O=C(CSc1nccn1C1CCCC1)Nc1ccc(C(F)(F)F)cc1 -12%
CC(C)CCN1C(=O)c2ccccc2CC1(C)C(=O)NC1CCC(C)CC1 (centres undefined) -9.5%
CCOC(=O)C1=C(C)NC(=O)NC1c1cn(-c2ccccc2)nc1-c1ccc(OCC)cc1 (centres undefined) -21.5%
CCCCOc1cccc(C(=O)Nc2cccc(-c3nc4ncccc4o3)c2C)c1 -1.23%
Cc1ccc(NC(=O)C2CCCN(c3ncnc4onc(-c5ccc(F)cc5)c34)C2)c(Cl)c1 (centres undefined) -15.3%
CSc1ncc(C(=O)N2CCN(c3cc(C)ccc3C)CC2)c(C)n1 4.58%
CCC(C)NC(=O)Cn1ccc2cc(S(=O)(=O)N3CCCCC3)ccc21 (centres undefined) -13.2%
CCC1CN(C(=O)NCc2ccc(C)cc2)c2ccccc2O1 (centres undefined) 8.08%
CCOc1ccc(-c2ncnn2-c2sc3c(c2C#N)CCCCC3)cc1 -19.1%
CC(C)c1ccc(N2C(=O)CS(=O)(=O)C23C(=O)N(Cc2cccc(F)c2)c2ccccc23)cc1 (centres undefined) -21.5%
Cc1oc(-c2ccc(C(=O)NCc3ccc(Cl)cc3)cc2)nc1CS(=O)(=O)c1ccccc1 -2.17%
CCn1c(=N)c(C(=O)NCc2ccccc2)cc2c(=O)n3cc(C)ccc3nc21 -9.49%
CCCCNC(=O)C(Cc1ccccc1)NS(=O)(=O)c1ccc2c(c1)c(=O)n(C)c(=O)n2C (centres undefined) 16.6%
COc1ccc(Cn2ccc3nc(C)c(C(=O)Nc4cc(C)cc(C)c4)cc3c2=O)cc1 -13.8%
COc1ccccc1CCNC(=O)c1ccc(-c2nc(CSc3ccc(C)cc3)c(C)o2)cc1 -11.1%
CSc1ncc(C(=O)Nc2c(C)cccc2C)c(-c2ccccc2)n1 -9.33%
Cc1nc2ccccc2c(=O)n1-c1ccc(NC(=O)c2cccc([N+](=O)[O-])c2)cc1 -18.3%
Cc1cc2c(C(C)C)c(O)c(O)c(C=O)c2c(O)c1-c1c(C)cc2c(C(C)C)c(O)c(O)c(C=O)c2c1O -15.4%
Cc1cc(C)c(OCC(=O)N(Cc2ccco2)Cc2ccco2)c(C)c1 -8.92%
Cc1ccc(C)c(NC(=O)c2cc(S(=O)(=O)N3CCCc4ccccc43)ccc2F)c1 -1.65%
COc1ccc(-n2c(=O)c3ccccc3n(CC(=O)Nc3ccccc3OC)c2=O)cc1 -9.08%
Cc1ccc(SCC(=O)Nc2ccc3oc(-c4ccccc4C)nc3c2)cc1 -14.1%
COc1cc(OC)cc(C(=O)Nc2cc3c(cc2N2CCCC2)n(C)c(=O)c(=O)n3C)c1 -34.9%
CCOC(=O)c1c(NC(=O)c2cc3ccccc3c(=O)o2)sc2c1CCC(C)C2 (centres undefined) -12.5%
C[C@]1(Cn2ccnn2)[C@H](C(=O)O)N2C(=O)C[C@H]2S1(=O)=O -16%
CSc1ccc(CCNC(=O)CCn2c(=O)c3cccn3c3ccc(F)cc32)cc1 -13.3%
COc1ccc(NC(=O)CSc2nc(-c3ccc(F)cc3)[nH]c2-c2ccc(C)cc2)cc1OC -13.1%
COc1ccc(S(=O)(=O)c2c(O)c3ccc(C(=O)NCc4ccc(F)cc4)cc3[nH]c2=O)cc1 -19.2%
CC(=O)c1ccc(NC(=O)c2cnn(-c3cccc(F)c3)c2-n2cccc2)cc1 -8.39%
Cc1ccc(CNC(=O)c2cc(C)nc3c2c(C)nn3-c2ccc(C)cc2)cc1 -13.2%
CCOc1ccc(NC(=O)c2cnc3ccccn3c2=O)cc1 -14.3%
Cc1ccc2c(CC(=O)Nc3c(C(=O)c4ccc(C)c(F)c4)oc4ccccc34)coc2c1 -9.44%
CC(CN(C)C)C(C)(O)Cc1ccc(Cl)cc1 (centres undefined) -12.6%
CCOC(=O)c1cc(S(=O)(=O)NCc2ccc(C)cc2)[nH]n1 -19%
COc1ccccc1NC(=O)CCCc1nnc2n(C)c(=O)c3sccc3n12 -9.51%
O=S(=O)(c1ccc(Cl)cc1)c1nc(-c2ccco2)oc1SCc1ccc(F)cc1 -10.7%
COc1ccc(CCN2C(=O)c3[nH]nc(-c4ccccc4O)c3C2c2ccc(OC)cc2)cc1 (centres undefined) -17.5%
O=C(Nc1ccc(Oc2ccccc2)cc1)C1CCN(S(=O)(=O)c2ccc(Cl)cc2)CC1 -0.056%
CCOc1ccc(CCNC(=O)c2ccc3c(c2)c(C)c(C)n3Cc2ccccc2)cc1OCC 4.49%
COc1ccccc1CNC(=O)CCC1N=C2c3ccccc3N=C(SCc3ccc(C)cc3C)N2C1=O (centres undefined) -13.5%
Fc1cccc(-n2ncc3c2ncn2nc(Cc4ccccc4)nc32)c1 -0.655%
COc1ccc(NC(=O)CN(c2cc(C)cc(C)c2)S(=O)(=O)c2c(C)noc2C)cc1Cl -13.5%
Cc1ccc2nc3sc(C(=O)NCCCN(C)c4ccccc4)cc3cc2c1 -6.37%
Cc1ccc(CNC(=O)CN2C(=O)COc3ccc(S(=O)(=O)Nc4ccccc4)cc32)cc1 0.706%
CC(C)(C)OC(=O)N1CCC(c2nnc(SCc3cccc(Cl)c3)o2)CC1 11.9%
